Experimental data as given in PubChem BioAssay AID488969 (Vanderbilt High Throughput Screening Facility, 2010).
Whole data set: some 110,000 compounds, median “z-score” near -0.1, cut for the highest 2% near 2. Some of the results follow.

Molecular target: Metabotropic glutamate receptor 8 (Rattus norvegicus) (UniProt P70579)
Experiment: mGluR8 Gi/Go-coupled signaling modulation – cell-based, rat, thallium flux, HTS, primary screen (AID 488969)
Conditions: HEK293 rat mGluR8, GIRK (G protein-gated inwardly rectifying potassium channel) thallium flux, FluoZin2; at 10 µM; stronger effect = higher value; submaximal glutamate (EC20) added with thallium

Sequence of UniProt P70579 (P70579 whole entry, looked up): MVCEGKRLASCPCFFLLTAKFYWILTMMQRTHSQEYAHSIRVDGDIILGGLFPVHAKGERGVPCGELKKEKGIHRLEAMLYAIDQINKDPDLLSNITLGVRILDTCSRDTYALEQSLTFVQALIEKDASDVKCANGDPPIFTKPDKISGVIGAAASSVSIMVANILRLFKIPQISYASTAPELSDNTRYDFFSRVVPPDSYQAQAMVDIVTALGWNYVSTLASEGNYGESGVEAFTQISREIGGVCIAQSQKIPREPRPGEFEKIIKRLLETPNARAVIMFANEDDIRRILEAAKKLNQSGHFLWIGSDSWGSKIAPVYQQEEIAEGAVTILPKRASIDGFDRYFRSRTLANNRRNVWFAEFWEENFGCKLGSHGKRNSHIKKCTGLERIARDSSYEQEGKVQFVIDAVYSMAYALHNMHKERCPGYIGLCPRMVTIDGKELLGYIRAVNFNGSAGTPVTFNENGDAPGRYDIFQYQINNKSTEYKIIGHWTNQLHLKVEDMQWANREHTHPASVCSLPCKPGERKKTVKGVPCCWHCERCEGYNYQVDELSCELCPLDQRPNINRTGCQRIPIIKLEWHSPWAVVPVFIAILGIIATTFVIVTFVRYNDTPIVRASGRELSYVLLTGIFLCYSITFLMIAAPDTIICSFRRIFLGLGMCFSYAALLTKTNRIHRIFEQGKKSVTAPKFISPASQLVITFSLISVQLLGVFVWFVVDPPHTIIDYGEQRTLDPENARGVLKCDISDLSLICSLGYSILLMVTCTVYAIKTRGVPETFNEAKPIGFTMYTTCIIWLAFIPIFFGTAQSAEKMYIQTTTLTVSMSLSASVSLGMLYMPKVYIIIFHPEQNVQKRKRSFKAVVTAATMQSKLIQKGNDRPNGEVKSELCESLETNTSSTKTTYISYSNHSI

Compound | z-score
CCC(CO)NCc1ccc(-c2ccccc2)cc1 (stereo not drawn) | 0.337
CCOc1ccc(C(=O)NC2CCN(C(=O)Nc3ccccc3OC)CC2)cc1 | -0.923
COc1ccc(N2C(=O)CC(N3CCC(O)(c4ccc(Br)cc4)CC3)C2=O)cc1 (stereo not drawn) | 0.215
CCCN1CCN(C(=S)Nc2ccc([N+](=O)[O-])cc2)CC1 | -0.205
CCCCCC(=O)N/N=C(\C)c1ccc(NC(=O)c2ccco2)cc1 | -0.112
Clc1ccccc1Sc1cnc2ccccc2n1 | 0.551
CCc1nnc(NC(=O)CN2CCN(c3cccc(OC)c3)CC2)s1 | 0.136
Cc1cnc(NC(=O)CSc2ccc(Cl)cc2)s1 | 1.89
CCC(=O)Nc1cccc(NC(=O)c2cccc([N+](=O)[O-])c2)c1 | -0.78
CC1CCN(CCCNC(=O)c2ccc(CS(=O)(=O)Cc3ccccc3F)o2)CC1 | -0.239
Cc1ccc(-c2nnc(SCC(=O)N3CCCC3)o2)cc1C | 0.166
Cc1ccc(NC(=O)N2CCN(c3ccccn3)CC2)cc1 | -0.533
CC(C)(C)c1ccc(C(=O)c2c[nH]c(C(=O)NCc3cccs3)c2)cc1 | -0.0379
COc1ccc(C(=O)Nn2c(SCc3cccc([N+](=O)[O-])c3)nc3ccccc3c2=O)cc1 | -0.0326
CCCC(=O)Nc1ccc2c(c1)nc1n2CCSC1 | 0.0727
Cc1c(Cl)cccc1Nc1nc(N)nc(CN2CCc3ccccc3C2)n1 | 0.571
CC1Cc2ccccc2N1C(=S)Nc1ccc(S(N)(=O)=O)cc1 (stereo not drawn) | 0.0257
O=C(O)c1c[nH]c2c(C(F)(F)F)cccc2c1=O | -0.119
CCOc1cc(/C=N\NC(=O)CN2CCOCC2)ccc1OCc1ccc(F)cc1 | -0.31
Cc1ccc(S(=O)(=O)N2CCC(C(=O)Nc3nnc(-c4ccc(F)cc4)s3)CC2)cc1 | -0.000295
Cc1cccc(N2CCN(C(=S)c3ccc([N+](=O)[O-])cc3)CC2)c1 | -0.193
CC(C)(C)C(=O)CC1(O)C(=O)N(Cc2ccccc2)c2ccccc21 (stereo not drawn) | -0.179
O=C(c1oc(=O)c2ccccc2c1-c1ccccc1)N1CCN(C2CCCCC2)CC1 | -0.07

Compound | z-score
COC(=O)/C(C(C)=O)=C(\C=C\N(C)C)N(C)C | 0.0491
CCN1C(=O)N(c2cccc3ccccc23)C(C)=CC1(C)C | 0.0711
COC(=O)CN1C(=O)S/C(=C/c2ccc(N3CCCCC3)o2)C1=O | -0.428
COc1ccc(CC(=O)N2CCN(C(=O)c3ccco3)CC2)cc1 | 0.485
Cc1nc(OCc2ccccc2)c2ccccc2n1 | 0.297
CC(c1ccco1)N(C(=O)c1ccc(C#N)cc1)c1ccccn1 (stereo not drawn) | -0.175
COc1ccc(/C=C/c2nc3ccccc3n2Cc2ccccc2OC)cc1 | -1.02
CC(=O)NCCn1c(SCc2cc(F)ccc2F)nc2ccccc2c1=O | 0.298
CSCCC(NC(=O)c1ccccc1)C(=O)OCC(=O)Nc1ccc(C)c(Cl)c1 (stereo not drawn) | -0.0955
Cc1ccccc1CS(=O)(=O)CCC(=O)NCc1ccccn1 | -0.0271
COc1ccc(-c2nnc3n2C(C)(C)Cc2cc(OC)c(OC)cc2-3)cc1 | 0.232
COc1ccc(OC)c(C2C=C(C34CC5CC(CC(C5)C3)C4)NC(=S)N2)c1 (stereo not drawn) | 0.0259
CC1(C)CC(=O)C(C=NCc2ccc3c(c2)OCO3)=C(O)C1 | 1.27
CN1CCN(C(=S)Nc2cccc(C(F)(F)F)c2)CC1 | -0.213
CCSc1nnc(CNC(=O)C23CC4CC(CC(C4)C2)C3)n1C1CCCCC1 | 0.209
C=C(C)COc1ccc(-c2[nH]ncc2Oc2ccccc2OC)c(O)c1 | -1.1
CCCNC(=O)N[C@@H](CCSC)C(=O)OC | -0.469
O=C(Nc1ccc(S(=O)(=O)NCCc2ccccc2)cc1)c1ccco1 | 0.183
Cc1ccc(C(=O)CC2(O)C(=O)N(Cc3ccccc3Cl)c3ccccc32)o1 (stereo not drawn) | -0.825
CC1(C)Oc2ccc3ccc(=O)oc3c2/C(=C/NC2CCCCC2)C1=O | -0.108
O=C(N/N=C/c1ccccc1OCc1ccccc1)c1cccnc1 | -0.175
CCOC(=O)c1ccc2c(c1)n(CC)c(/C=C/N(C)c1ccccc1)[n+]2CC | -0.0543
Cc1ccc(S(=O)(=O)NNC(=O)c2sc(=S)n(C)c2C)cc1 | -0.138

Compound | z-score
O=[N+]([O-])c1cccc(S(=O)(=O)N2CCCCCC2)c1 | -0.293
COc1cc(C(=S)N2CCOCC2)cc(OC)c1OC(=O)Cc1ccc(F)cc1 | 0.0628
O=C(CSc1ccc(-c2ccco2)nn1)NCc1ccc(Cl)cc1 | -0.312
Cn1nnc(NC(=O)c2ccco2)n1 | 0.813
CCSc1nnc([C@H](Cc2ccccc2)NC(=O)OC(C)(C)C)o1 | 1.57
Cc1nnc(SCC(=O)N2CCCCC2)s1 | 0.676
Cc1ccc(S(=O)(=O)CC(=O)NC(C)(C)C)cc1 | -0.0372
COc1ccc(NC(=O)CNS(=O)(=O)c2ccc(Cl)cc2)cc1 | 0.142
C=CCn1c(=O)/c(=C2/SC(C)=C(C)N2CC)s/c1=C1/C(=O)N(CC)C(=S)N1c1ccccc1 | -0.0202
N#CC1=C(N)OC2=C(CCC/C2=C/c2ccoc2)C1c1ccoc1 (stereo not drawn) | -0.174
O=C(Nc1ccccc1Cl)c1cc(S(=O)(=O)N2CCCC(C(=O)O)C2)ccc1F (stereo not drawn) | -0.787
CCSCC1COC(c2cccn2Cc2ccc(C)cc2)=N1 (stereo not drawn) | 0.0738
CCCCn1cnc2c1c(=O)[nH]c(=O)n2CCCC | -0.367
C=CCn1c(SCC(=O)Nc2cc(C)ccc2OC)nnc1-c1ccco1 | -0.945
CCOC(=O)c1c(NC(=O)Nc2ccccc2)sc(C)c1C | 0.488
COc1ccc(C(=O)Nc2ccc3c(c2)nc(CN2CCN(C(C)=O)CC2)n3C)cc1 | -0.602
O=c1c2c(nc3c(-c4cccc5ccccc45)c[nH]n13)CCC2 | -0.52
COc1ccc(N(CC(=O)N2c3ccccc3CC2C)S(=O)(=O)c2c(C)noc2C)cc1 (stereo not drawn) | -0.103
O=C(c1ccc(CS(=O)(=O)c2c(Cl)cccc2Cl)o1)N1CCCC1 | -0.558
CCC(C)c1ccc(OCC(=O)O)cc1 (stereo not drawn) | -0.502
CCOC(=O)N1CCN(C(=O)c2cnsn2)CC1 | -0.305
Cc1ccc(S(=O)(=O)N(CCCO)Cc2cc3c(C)ccc(C)c3[nH]c2=O)cc1 | -0.198
O=C(NC1CCCCC1)c1ccc(CN2CCOCC2)cc1 | 0.501

Compound | z-score
COc1ccc(-c2ccnc3nc(N4CCOCC4)nn23)cc1 | -0.177
O=C(N/N=C/c1ccc(Cl)cc1Cl)c1cccc(F)c1 | -0.0366
CCOC(=O)CN(C(=O)CSc1nnc(CNc2ccc(F)cc2)n1CC)c1ccc(F)cc1 | -0.599
Cc1ccc(Oc2ccc(-c3nc(N)nc(N)n3)cc2)cc1 | 0.224
NNC(=O)c1cn2ccccc2n1 | 0.132
c1ccc(-c2nc(-n3nc4ccccc4n3)nc3ccccc23)cc1 | -0.594
CN(C)c1ccc(CNc2ncc(Br)cc2Br)cc1 | 1.51
CCOc1ccccc1-n1c(N)c(C(N)=O)sc1=S | 0.182
O=C(Nc1ccccc1Cl)C1CCCN(S(=O)(=O)c2ccc(F)cc2)C1 (stereo not drawn) | -0.181
CC(C(=O)N=c1sc2ccccc2n1C)N1C(=O)C2CC=CCC2C1=O (stereo not drawn) | 0.889
CCOC(=O)Cc1csc(NC(=O)CCS(=O)(=O)Cc2ccccc2)n1 | -0.291
COc1ccc(N=C2SC(CC(=O)Nc3ccc(OC)cc3OC)C(=O)N2C)cc1 (stereo not drawn) | -1.68
CCCCN1C(=O)c2ccc(C(=O)Nc3cccnc3)cc2C1=O | -0.153
COc1ccc(CNC(=S)Nc2ccc(OC)cc2)cc1 | 0.711
CCC(CC)C(=O)Nc1cccc(C(=O)c2ccccc2)c1 | -0.307
CCOc1ccc(NC2=C(Cl)C(=O)N(Cc3ccccc3)C2=O)cc1 | -0.0594
Cc1ccc2nc3ccc(N4CCCCCCC4)nn3c(=O)c2c1 | -0.682
Cc1c(NC(=O)Cn2ccc([N+](=O)[O-])n2)c(=O)n(-c2ccccc2)n1C | -0.148
CCCCNC(=O)c1sc(=S)n(-c2ccccc2OC)c1N | -0.359
Cc1cccc(-n2c(-c3csc(C)c3)n[nH]c2=S)c1 | 0.189
CCC(C)NC(=O)c1ccccc1NC(=O)C(C)N(c1ccccc1)S(C)(=O)=O (stereo not drawn) | -0.313
O=C(c1cccc(S(=O)(=O)Nc2cccc(C(F)(F)F)c2)c1)N1CCCCC1 | -0.337
CSc1nc(C)c2c(n1)N(c1cccc(C)c1)CC2 | -0.25

Compound | z-score
COc1ccc(CCNC(=O)CN2CCN(c3ccccc3Cl)CC2)cc1 | 0.132
O=C(COc1ccc2c(c1)CCC2)NCc1cccc(Cl)c1 | -0.0943
Cc1cc2c(c(SCC(=O)NCCc3ccccc3)n1)C(=O)OC2 | 0.0328
Cc1sc(=NC(=O)c2ccco2)n(C)c1-c1ccc(F)cc1 | -0.236
CCC1C(=O)CC(c2ccco2)NC1c1ccco1 (stereo not drawn) | 0.0353
Cc1ccc(O)c(C2=NOC(O)(C(F)(F)F)C2)c1 (stereo not drawn) | -0.0776
CCOC(=O)c1sc(NC(=O)COC(=O)CNC(=O)C2CCCCC2)c(C(=O)OCC)c1C | -0.218
Cc1ccc(C)c(NC(=O)COc2cccc3c2CCN(Cc2ccccc2C)C3=O)c1 | -0.205
COc1ccc(/C(O)=C2/C(=O)C(=O)N(Cc3ccco3)C2c2cccs2)cc1 (stereo not drawn) | 0.0398
CCN(CC)c1ccc(/C=N/Nc2ccc(C)cc2)c(O)c1 | -0.305
CCN1C(=O)/C(=C\c2cccs2)C(C(=O)OC)=C1C | 0.0653
CCCCC(=O)Nc1cccc(-c2csc(-c3ccccc3)n2)c1 | -0.569
O=C(NCC1(c2ccccc2)CCCC1)C1(c2ccccc2)CCCC1 | 0.0324
CNC(=S)NNC(=O)c1cccn(Cc2ccc(Cl)c(Cl)c2)c1=O | -0.0546
COCc1cc(C)nc(N2CCN(Cc3ccccc3)CC2)c1C#N | -0.0304
O=C(Cc1cccs1)Nc1ccon1 | 1.01
Cc1ccc(CCN2CC(C(=O)NCCCN3CCN(C)CC3)CC2=O)cc1 (stereo not drawn) | -0.625
CC(=O)c1cc(C#N)c(Oc2cccc(C(F)(F)F)c2)nc1C | 0.0782
Cc1cc(C)cc(-n2c(SC(C)C(=O)NCc3ccc4c(c3)OCO4)nc3ccccc3c2=O)c1 (stereo not drawn) | -0.19
COc1ccccc1NC(=O)c1sc2nc(Cc3ccccc3)cc(C(F)(F)F)c2c1N | -1.01
CC(=O)Nc1cccc(NC(=O)C2CCCN2C(=O)Nc2ccc(C)cc2)c1 (stereo not drawn) | -0.128
